# Laboratory results from PubChem BioAssay AID624417 (National Center for Advancing Translational Sciences (NCATS), 2012).
# About 6,400 (1.6%) of roughly 410,000 compounds were called active. This list was built around the results that the source calls inconclusive (neither active nor inactive); the mix of calls is not that of the screen. Calls follow the shape of the dose curve; as a rule, active = well fitted inhibition curve with a large enough effect; inconclusive = small, poorly fitted or top-dose-only effect; inactive = no such curve, though single readings can be large or run the other way. Potencies of inconclusive entries are doubtful fits and often do not repeat.
# Biological target: Glucagon-like peptide 1 receptor (Homo sapiens) (UniProt P43220)
# Assay: qHTS of GLP-1 Receptor Inverse Agonists (Inhibition Mode); also: nearly all actives have a fitted effect of over 55% in size
# Conditions: HEK293 GLP-1R CRE-luciferase, luminescence, 24 h, GLP-1R form is constitutively active; activity change, negative = inhibition: at 38.3 µM (top of the series) unless noted
# How it was run: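 Stable HEK293 clone (constitutively active GLP-1R + cAMP-response luciferase); 200 cells/uL plated, 12 h pre-culture, compound 24 hr, 37 deg C/5% CO2; detection reagent 12 min RT; luminescence.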
# % is scaled to controls: 0 for no effect and ±100 for the full control effect; potency is read from the fitted curve at half-maximal effect; tags tell the direction and shape of the fitted curve.
# Chain of UniProt P43220 (P43220 whole entry, looked up): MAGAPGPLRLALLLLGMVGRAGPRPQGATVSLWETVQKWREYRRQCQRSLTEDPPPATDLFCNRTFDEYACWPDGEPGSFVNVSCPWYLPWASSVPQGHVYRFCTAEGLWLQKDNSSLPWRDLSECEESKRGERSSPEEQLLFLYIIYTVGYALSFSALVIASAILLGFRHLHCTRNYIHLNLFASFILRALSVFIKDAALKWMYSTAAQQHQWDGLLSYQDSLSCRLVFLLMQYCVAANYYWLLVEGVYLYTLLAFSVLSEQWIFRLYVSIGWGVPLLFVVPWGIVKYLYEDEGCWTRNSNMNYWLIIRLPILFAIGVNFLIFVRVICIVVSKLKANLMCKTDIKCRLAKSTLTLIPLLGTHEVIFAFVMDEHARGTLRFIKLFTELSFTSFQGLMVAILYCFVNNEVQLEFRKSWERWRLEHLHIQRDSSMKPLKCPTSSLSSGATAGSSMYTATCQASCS
Structure (SMILES),Potency,"activity change, negative = inhibition"
COc1ccccc1NC(=O)NCCCCc1ccccc1,"inconclusive: 7.94 µM [inhibitor, partial curve, poor fit]",
CCN1CCN(c2ccc([N+](=O)[O-])c(Sc3nc4ccccc4[nH]3)c2)CC1,"inconclusive: 10 µM [inhibitor, partial curve, poor fit]",
CC(C)Oc1cccc(C(=O)Nc2ccc(Br)cc2F)c1,"inconclusive: 11.2 µM [inhibitor, partial curve, poor fit]",
CSc1ccccc1C(=O)NCCOc1cccc(C)c1,,inconclusive: -37.2% [inhibitor] [at 0.307 µM]
Cn1cc(CN(C(=O)Nc2ccccc2)C2CCCCC2)c2ccccc21,active: 10 µM,
CC(C)(C)c1ccc(C(=O)Nc2ccc(S(N)(=O)=O)cc2)cc1,"inconclusive: 10 µM [inhibitor, partial curve]",
COc1ccccc1-c1ccc(/C=C2/C=C(C)OC2=O)o1,inactive,
CCOC(=O)[C@@H]1[C@H]2COc3ccc(Br)cc3[C@@H]2N2C(=O)N(c3ccc(C)cc3)C(=O)[C@]12C,"inconclusive: 28.2 µM [inhibitor, single point]",
CC(=O)c1cc(C(=O)N2CCCC(C(=O)c3ccc(Cl)cc3)C2)cs1 (stereo unspecified),"inconclusive: 17.8 µM [inhibitor, partial curve, poor fit]",
CN(C)Cc1csc(NC(=O)Nc2ccccc2Oc2ccccc2)n1,"inconclusive: 20 µM [inhibitor, single point]",
O=[N+]([O-])c1cc(Cl)cc(/C=N/NC(=S)Nc2ccc(S(=O)(=O)N3CCOCC3)cc2)c1O,"inconclusive: 14.1 µM [inhibitor, partial curve, poor fit]",
Oc1ccc(/C(Cc2ccc3ccccc3n2)=N\Nc2ccccc2)c(O)c1,"inconclusive: 6.31 µM [inhibitor, partial curve, poor fit]",
COc1ccc([C@H]2CC(=O)C=C(c3ccc(F)cc3OCc3ccccc3)C2)cc1OC,"inconclusive: 12.6 µM [inhibitor, single point]",
COc1ccc(C)cc1NC(C)C(=O)NC(=O)NC1CCCCC1 (stereo unspecified),"inconclusive: 12.6 µM [inhibitor, single point]",
CC(C)c1ccc(NC(=O)C2CCN(S(C)(=O)=O)CC2)cc1,"inconclusive: 8.91 µM [inhibitor, partial curve, poor fit]",
COC(=O)c1cc(C(=O)c2c(C)cc3ccccn23)cc([N+](=O)[O-])c1,"inconclusive: 12.6 µM [inhibitor, partial curve, poor fit]",
Cc1ccc(-n2cc(CNCCc3cscn3)c(-c3ccc(F)cc3)n2)cc1,"inconclusive: 28.2 µM [inhibitor, single point]",
Cc1cc(C)c2nc(C)cc(N/N=C/c3ccc(O)cc3)c2c1,"inconclusive: 28.2 µM [inhibitor, single point]",
CCc1ccc2c(c1)NC(=O)C2(C)Cc1cccc(F)c1 (stereo unspecified),"inconclusive: 28.2 µM [inhibitor, single point]",
CC1=NOC(=O)/C1=C\c1ccc(-c2ccc(Br)cc2C(=O)O)o1,inactive,
O=C(/C=C/c1ccc2c(c1)OCCCO2)c1ccc2ccccc2c1O,"inconclusive: 28.2 µM [inhibitor, single point]",

Structure (SMILES),Potency,"activity change, negative = inhibition"
CCOC(=O)c1ccccc1NC(=O)COC(=O)CSCC(=O)Nc1cc(C)on1,inactive,
O=C(Nc1cccc(C(F)(F)F)c1)c1ccc2c(c1)nnn2C1CCCC1,inactive,
CN(c1ccccc1)S(=O)(=O)c1ccc(C(=O)NCc2cccs2)cc1,"inconclusive: 12.6 µM [inhibitor, partial curve, poor fit]",
CCc1ccc(/C=C/c2c[nH]c3ccccc23)[n+](CC)c1,"inconclusive: 1.58 µM [inhibitor, full curve, poor fit]",
Cc1ccc(C2(C)NC(=O)N(CC(=O)Nc3ccccc3N3CCCCC3)C2=O)cc1 (stereo unspecified),"inconclusive: 20 µM [inhibitor, partial curve, poor fit]",
O=C(c1ccco1)N1CCN(C(c2ccccc2)c2nnnn2Cc2cccs2)CC1 (stereo unspecified),"inconclusive: 7.08 µM [inhibitor, partial curve]",
Cc1cc(N2CCCC2)nc2ccc(NC(=S)NCCCOC(C)C)cc12,"inconclusive: 28.2 µM [inhibitor, single point]",
CCC(=O)NC(c1ccc(OC)cc1)c1cc(Cl)c2cccnc2c1O (stereo unspecified),"inconclusive: 7.94 µM [inhibitor, partial curve, poor fit]",
COc1ccc(OC)c(NC(=O)COC(=O)C2CCC2)c1,inactive,
COC(=O)c1c(C)oc2ccc(N(C(=O)c3ccncc3)S(=O)(=O)c3ccc(OC)cc3)cc12,"inconclusive: 1.41 µM [inhibitor, full curve]",
CC(NC(=O)CC(c1ccccc1)c1cc(Cl)ccc1O)c1ccccc1 (stereo unspecified),"inconclusive: 3.16 µM [inhibitor, single point]",
N#Cc1sc(NCc2cccc(Cl)c2)nc1Cl,"inconclusive: 28.2 µM [inhibitor, single point]",
COc1ccc(Nc2nc3ccc(OC)cc3s2)cc1,"inconclusive: 31.6 µM [inhibitor, single point]",
NC(=O)CC(NC(=O)c1ccccc1)c1ccc(N2CCCCCCC2)c([N+](=O)[O-])c1 (stereo unspecified),inactive,
COc1cc(/C=N/NC(=O)CC2(C)OCCCO2)ccc1OCc1ccc(Cl)cc1Cl,"inconclusive: 10 µM [inhibitor, partial curve, poor fit]",
COc1ccc(NC(=S)NC2CCCCCC2)c(OC)c1,"inconclusive: 31.6 µM [inhibitor, partial curve, poor fit]",
O=C(c1cnc2ccc3ccccc3c2c1)c1cc(F)ccc1O,"inconclusive: 10 µM [inhibitor, partial curve, poor fit]",
COc1ccc(/C=C/C(=O)NC2CCN(Cc3ccccc3)CC2)cc1OC,"inconclusive: 8.91 µM [inhibitor, partial curve, poor fit]",
COc1ccc(C(=O)C2CCCN(S(=O)(=O)c3ccccc3F)C2)c(C)c1 (stereo unspecified),"inconclusive: 5.62 µM [inhibitor, partial curve, poor fit]",
CN(C)c1ccccc1-c1cc(NC=O)c2ncc(-c3cccc(C(F)(F)F)c3)n2c1,"inconclusive: 31.6 µM [inhibitor, single point]",
O=C(C1CCCN(S(=O)(=O)c2cccc3nonc23)C1)N1CCC(Cc2ccccc2)CC1 (stereo unspecified),"inconclusive: 28.2 µM [inhibitor, single point]",

Structure (SMILES),Potency,"activity change, negative = inhibition"
O=S(=O)(c1ccc(Br)cc1)c1nc(-c2ccccc2)oc1N1CCOCC1,"inconclusive: 10 µM [inhibitor, partial curve, poor fit]",
C/C(=N\NC(=O)c1ccc(OC2CCCC2)cc1)c1ccc(O)cc1,"inconclusive: 17.8 µM [inhibitor, partial curve, poor fit]",
O=C(c1nc2nc(-c3cccs3)cc(C(F)(F)F)n2n1)N1CCN(Cc2ccccc2)CC1,inactive,
CCOC(=O)[C@]12CCC=C1N(Cc1ccc(Cl)cc1Cl)C(=O)[C@H](CC(=O)NCCc1ccccc1OC)C2,"inconclusive: 11.2 µM [inhibitor, partial curve, poor fit]",
Cc1cc(C)c(S(=O)(=O)c2cc(F)ccc2C)c(Cl)n1,"inconclusive: 7.94 µM [inhibitor, partial curve, poor fit]",
CC1CC(C)CN(C(=O)/C(=C\c2ccccc2)c2ccccc2)C1 (stereo unspecified),"inconclusive: 7.08 µM [inhibitor, partial curve]",
Oc1c(C(c2ccccn2)N2CCOCC2)ccc2cccnc12 (stereo unspecified),"inconclusive: 10 µM [inhibitor, partial curve, poor fit]",
Clc1ccc(-c2cn3ccccc3n2)cc1,"inconclusive: 12.6 µM [inhibitor, single point]",
Cc1cccc(COC[C@H](CC(C)C)N2CCN(C(=O)c3ccc(C(F)(F)F)cc3)CCC2=O)c1,"inconclusive: 11.2 µM [inhibitor, single point]",
Cc1cc(C)n(-c2ccc(C(=O)NCC(=O)Nc3cc(Cl)ccc3Cl)cc2)n1,"inconclusive: 11.2 µM [inhibitor, single point]",
COc1ccccc1NC(=O)CSc1nc(O)cc(=O)n1C,inactive,
COc1ccc2oc(=O)cc(CN3CCN(Cc4ccc(OC)c(OC)c4OC)CC3)c2c1,"inconclusive: 10 µM [inhibitor, partial curve, poor fit]",
COc1ccccc1NC(=O)CCCc1c[nH]c2ccccc12,"inconclusive: 28.2 µM [inhibitor, single point]",
C=CCn1c2ccccc2n2nc(C)c(=O)nc12,inactive,
Cc1ccccc1C(=O)N1CCN(c2ccc(NC(=O)c3ccccc3[N+](=O)[O-])cc2)CC1,"inconclusive: 3.16 µM [inhibitor, full curve, poor fit]",
COC(=O)c1cc2oc(C)cc2n1Cc1ccc(Br)cc1F,"inconclusive: 12.6 µM [inhibitor, single point]",
O=C(NCCc1ccc(C(F)(F)F)cc1)c1ccc(Cl)nc1,"inconclusive: 11.2 µM [inhibitor, single point]",
COC(=O)CNC(c1ccccc1Cl)c1cc(Br)ccc1NC(=O)CCN1CCOCC1 (stereo unspecified),"inconclusive: 14.1 µM [inhibitor, single point]",
CCc1ccc(-n2c(=O)c3cccnc3n2CC(=O)NCc2ccccc2)cc1,"inconclusive: 28.2 µM [inhibitor, single point]",
